Test results: the supplement of paper PMC12217912
The list shows a part of the results. The full chains were built here from the parent and the listed change. Values near 0.05 are background.

B1: TEV protease; numbered along this chain (parent)
chain: MGESLFKGPRDYNPISSSICHLTNESDGHTTSLYGIGFGPFIITNKHLFRRNNGTLVVQSLHGVFKVKDTTTLQQHLVDGRDMIIIRMPKDFPPFPQKLKFREPQREERICLVTTNFQTKSMSSMVSDTSCTFPSGDGIFWKHWIQTKDGQCGSPLVSTRDGFIVGIHSASNFTNTNNYFTSVPKNFMELLTNQEAQQWVSGWRLNADSVLWGGHKVFMVKPEEPFQPVKEATQL

Variants of: B1
Assay: raw area under fraction-flipped curve 0-4 h after induction (AUC4h, not background-subtracted), DNA-recorder readout of cleavage of the substrate (dimensionless); higher = more cleavage of the substrate by the protease variant
Settings: temperature: 34 °C; time window: 0-4 h after rhamnose induction
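Further: Bxb1 expression induced with 0.2% (w/v) L-rhamnose at OD600 near 0.5, cultures sampled hourly, flipped fraction per protease–substrate barcode pair counted by paired-end Illumina sequencing.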

Variant	area with substrate DNLYFQS	area with substrate GNLYFQS	area with substrate INLYFQS	area with substrate LNLYFQS	area with substrate NNLYFQS	area with substrate RNLYFQS	area with substrate SNLYFQS	area with substrate TNLYFQS	area with substrate VNLYFQS	area with substrate YNLYFQS	area with substrate FNLYFQS	area with substrate HNLYFQS	area with substrate KNLYFQS	area with substrate WNLYFQS	area with substrate MNLYFQS	area with substrate PNLYFQS
MGESLFKGPRDYNPISSSICHLTNESDGHTTSLYGIGFGPFIITNKHLFRRNNGTLVVQSLHGVFKVKDTTTLQQHLVDGRDMIIIRMPKDFPPFPQKLKFREPQREERICLVTTNFQTKSMSSMVSDTSCTFPSGDGIFWKHWIQTKDGQCGSPLVSTRDGFIVGIHSASNFTNTNNYFTSVPKNFMELLTNQEAQQWVSGWRLNADSVLWGGHAVFMVKPEEPFQPVKEATQL [K216A]	0.0491	0.0569	0.0633	0.0539	0.053	0.037	0.0504	0.0638	0.0661	0.0685	–	–	–	–	–	–
MGESLFKGPRDYNPISSSICHLTNESDGHTTSLYGIGFGPFIITNKHLFRRNNGTLVVQSLHGVFKVKDTTTLQQHLVDGRDMIIIRMPKDFPPFTQKLKFREPQREERICLVTTNFQTKSMSSMVSDTSCTFPSGDGIFWKHWIQTKDGQCGSPLVSTRDGFIVGIHSASNFTNTNNYFTSVPKNFMELLTNQEAQQWVSGWRLNADSVLWGGHKVFMVKPEEPFQPVKEATQL [P96T]	–	–	–	–	–	–	–	0.066	–	–	0.0677	0.0977	0.0658	0.0684	–	–
MGESLFKGPRDYNPISSSICHLTNESDGHTTSLYGIGFGPFIITNKHLFRRNNGTLVVQSLHGVFKVKDTTTLQQHLVDGRDMIIIRMPKDFPPFQQKLKFREPQREERICLVTTNFQTKSMSSMVSDTSCTFPSGDGIFWKHWIQTKDGQCGSPLVSTRDGFIVGIHSASNFTNTNNYFTSVPKNFMELLTNQEAQQWVSGWRLNADSVLWGGHKVFMVKPEEPFQPVKEATQL [P96Q]	–	–	0.0608	–	–	–	–	0.0615	–	–	0.0616	0.0668	0.086	–	0.0589	–
MGESLFKIPRDYNPISSSICHLTNESDGHTTSLYGIGFGPFIITNKHLFRRNNGTLVVQSLHGVFKVKDTTTLQQHLVDGRDMIIIRMPKDFPPFPQKLKFREPQREERICLVTTNFQTKSMSSMVSDTSCTFPSGDGIFWKHWIQTKDGQCGSPLVSTRDGFIVGIHSASNFTNTNNYFTSVPKNFMELLTNQEAQQWVSGWRLNADSVLWGGHKVFMVKPEEPFQPVKEATQL [G8I]	–	0.0795	–	0.0644	–	–	–	0.0926	0.0815	0.0152	–	0.0637	–	–	–	–
MGESLFKGPRDYNPISSSICHLTNESDGHTTSLYGIGFGPFIITNKHLFRRNNGTLVVQSLHGVFKVKDTTTLQQHLVDGRDMIIIRMPKDFPPFPQKLKFREPQREERICDVTTNFQTKSMSSMVSDTSCTFPSGDGIFWKHWIQTKDGQCGSPLVSTRDGFIVGIHSASNFTNTNNYFTSVPKNFMELLTNQEAQQWVSGWRLNADSVLWGGHKVFMVKPEEPFQPVKEATQL [L112D]	0.0371	–	0.0564	0.0612	–	–	0.0397	0.0234	–	0.0452	0.0877	0.0551	–	–	–	0.0455
MGESLFKGPRDYNPISSSICHLTNESDGHTTSLYGIGFGPFIITNKHLFRRNNGTLVVQSLHGVFKVKDTTTLQQHLVDGRDMIIIRMPKDFPPFPQKLKFREPQREERICTVTTNFQTKSMSSMVSDTSCTFPSGDGIFWKHWIQTKDGQCGSPLVSTRDGFIVGIHSASNFTNTNNYFTSVPKNFMELLTNQEAQQWVSGWRLNADSVLWGGHKVFMVKPEEPFQPVKEATQL [L112T]	0.0584	–	0.0441	–	0.0655	–	0.0679	0.064	–	0.0411	0.0631	0.053	0.052	0.0446	–	0.0767
MGESLFKGPRDYNPISSSICHLTNESDGHTTSLYGIGFGPFIITNKHLFRRNNGTGVVQSLHGVFKVKDTTTLQQHLVDGRDMIIIRMPKDFPPFPQKLKFREPQREERICLVTTNFQTKSMSSMVSDTSCTFPSGDGIFWKHWIQTKDGQCGSPLVSTRDGFIVGIHSASNFTNTNNYFTSVPKNFMELLTNQEAQQWVSGWRLNADSVLWGGHKVFMVKPEEPFQPVKEATQL [L56G]	–	0.0536	–	–	0.0303	–	0.0497	0.0532	0.0451	0.0439	–	0.0509	–	0.0399	0.0475	0.0429
MGESLFKGPRDYNPISSSICHLTNESDGHTTSLYGIGFGPFIITNKHLFRRNNGTLVVQSLHGVFKVKDTTTLQQHLVDGRDMIIIRMPKDFPPFPQKLKFREPQREERICLVTTNFQTKSMSSMVSDTSCTFPSKDGIFWKHWIQTKDGQCGSPLVSTRDGFIVGIHSASNFTNTNNYFTSVPKNFMELLTNQEAQQWVSGWRLNADSVLWGGHKVFMVKPEEPFQPVKEATQL [G136K]	0.0774	0.085	0.0429	0.0648	–	–	0.0734	0.0543	–	0.068	–	0.0437	0.0606	0.058	–	–
MGESLFKGPRDYNPISSSICHLTNESDGHTTSLYGIGFGPFIITNKHLFRRNNGTLVVQSLHGVFKVKDTTTLQQHLVDGRDMIIIRMPKDFPPFPQKLKFREPQREERICLVTTNFQTKSMSSMVSDTSCTFPSGDGIFWKHWIQTKDGQCGSPLVSTRDGFIVGIHSASNFTNTNNYFTSVPKNFMELLTNQEAQQWVSGWRLNADSVLWGGHKVFMVKPEEPFQPVKEYTQL [A232Y]	0.0831	0.0904	0.0717	–	0.0742	0.0788	0.0671	0.0631	–	–	0.0571	0.0779	0.0885	0.0624	0.0622	–
MGESLFKGPRDYNPISSSICHLTNESDGHTTSLYGIGFGPFIITNKHLFRRNNGTLVVQSLHGVFKVKDTTTLQQHLVDGRDMIIIRMPKDFPPFPQKLKFREPQREERICLVTTNFQTISMSSMVSDTSCTFPSGDGIFWKHWIQTKDGQCGSPLVSTRDGFIVGIHSASNFTNTNNYFTSVPKNFMELLTNQEAQQWVSGWRLNADSVLWGGHKVFMVKPEEPFQPVKEATQL [K120I]	0.0856	–	–	0.0584	–	–	0.0636	–	0.0501	0.0409	0.0514	0.0675	–	–	0.006	0.059
